This is one part of the list.
B1: chr7:66532262:66532263:+_ENSMUSG00000025326_ENSMUST00000107537|mus_hu|FALSE|FALSE (ssRNA)
RNA: GGGAGUUCUACAGUCCGACGAUCUCCUUGAACUAAGCUGUAGAGAACAGUGAUUCUUCGUUCACUGUACAUGCGAAUUCUAUUGUCAUAAUAUAAUCCCAAAUUCUUUGUGACAGCAUUCAAUAUAAAGGGACAUGUCAUAAACAACAGAGGAUUGAGCAUCA
B2: chr10:57206289:57206290:+_ENSMUSG00000019878_ENSMUST00000079833|mus_hu|FALSE|FALSE (ssRNA)
RNA: GGGAGUUCUACAGUCCGACGAUCGCCGGCACGUUCGAACUCUGCUUCAUUGUUAACGCGGCGCAGGGAUUCCAAAUUCUACACCCGAACGCGGUGGUAGCGGCGGCGGCAGCUACGGCAGCAGCUCCCCGAGAACGCCCACAACAACAGAGGAUUGAGCAUCA
B3: chr3:9412954:9412955:+_ENSG00000134077_ENST00000452837|hu_mus|hu_hu_hu_mus_False|1_1 (ssRNA)
RNA: GGGAGUUCUACAGUCCGACGAUCGGUUGAUAUCUCUUCUUUGAUGGCUGGAUUUUCAUAAUAGUCCAAGAUAUGUGAAUCUGAAGUGCUGCUGGCAUGCUUUUUCUUACCAUCUUUCUCAUCUGCUUUGUCUCCUUGUCCAUUCAACAGAGGAUUGAGCAUCA
B4: chr3:95749504:95749505:+_ENSMUSG00000015749_ENSMUST00000165307|mus_mus|FALSE|FALSE (ssRNA)
RNA: GGGAGUUCUACAGUCCGACGAUCAGUGUAAUUGGUUAAUUUAUAAAUAACUUUAAAACACUAUGAAUGAAAUGCACCAAACUACACCUGUGUAAAAGCAACAAUGUUUUAAUUAUGGGCUAAAAAUGUCUAAUACAUUAAGCACAACAGAGGAUUGAGCAUCA
B5: chr4:140556289:140556290:+_ENSMUSG00000036622_ENSMUST00000037055|mus_mus|mus_mus_mus_hu_False|38_38 (ssRNA)
RNA: GGGAGUUCUACAGUCCGACGAUCGAUGGAGCUCACCAGGCCCCCUUUUGCCGUGCAGAACCCUGUGCGGGUCACCACUGCCAGGACGUGCGGUCCCACGUAGGCUCGGGCCUGCAAGAUGAGGGUCCCGCAGAAGAGUGUGUGCAACAGAGGAUUGAGCAUCA
B6: 26416299_26417017_938_CDS_ENSMUSG00000024188_ENSMUST00000114976|mouse|control|control (ssRNA)
RNA: GGGAGUUCUACAGUCCGACGAUCGGAACGGCUGCGAUGGCGCCUGUAUCUAUCUCGGGAUCUGGAACGGGAAAACUUCCGCCGCUCUCUGGAGGUAGACCUAGACCGCCUCCGUCGACGAUCCCGGGAGCGUGACCUUCUGCGCAACAGAGGAUUGAGCAUCA
B7: chr11:46405157:46405158:+_ENSG00000110492_ENST00000395566|hu_hu|hu_hu_hu_mus_False|28_28 (ssRNA)
RNA: GGGAGUUCUACAGUCCGACGAUCCCCUCCCCACUUUGGGCACUUGGUGUGGGCGUGAGAGGACAGGCGUGAUUGACAGAGCUGACAGGAAGACAAAAGGCACUGGUGGGUCACAUCUUGGGCCUGUGGGAGAGGAGGGCUCCGCAACAGAGGAUUGAGCAUCA
B8: 60767377_60767590_4158_CDS_ENSG00000011028_ENST00000303375|human|control|control (ssRNA)
RNA: GGGAGUUCUACAGUCCGACGAUCGGGAAUCCACGCGGAGUCUGCCAGUCCCUGGGGACAGCUGCCAUGGUAGCUUAUUCUUCGGGGAGGAGGGGGCCCACUGCUAACCCCACACACAGCCCCCUGCAGCUUGGUGUCACAGCUCAACAGAGGAUUGAGCAUCA
B9: chr7:151048522:151048523:+_ENSG00000013374_ENST00000566856|hu_mus|hu_hu_hu_mus_True|18_58 (ssRNA)
RNA: GGGAGUUCUACAGUCCGACGAUCCUGUUUCUUAUUUAUUACGAUCUUGAUGUAAUUUUCUUGAAAUCCGAAAGUUUCAGCUAUUUUACACCUCAGGUCUCUACCAGUGACAUGCAAUCGGGUCUCCAACAAGCUUUUCUUAUCCAACAGAGGAUUGAGCAUCA
B10: 205066520_205068233_1181_3pUTR_ENSG00000117222_ENST00000264515|human|control|control (ssRNA)
RNA: GGGAGUUCUACAGUCCGACGAUCCCCCUGUCUGCUCAGGCUCACUCUUAUCUUCAUCUUCAAUAUCAAACUCUGAUUCCCUUUCUUCGUAUUCUACAUUUUCAUCCAAUUCUUUGAAGUCUGGUGCAAAUGCACUCCAGUUUUCAACAGAGGAUUGAGCAUCA
B11: chr2:224824363:224824364:+_ENSG00000135900_ENST00000258383|hu_hu|motif|central (ssRNA)
RNA: GGGAGUUCUACAGUCCGACGAUCAGCUUCUUUCUCUAUCCCAAGUUGUUGGCGUUUGGCCUCCUCACUUUUAAUAUAGCAGCGGUUAACAAAUGCAGUUUUGAGAAGAUCUAAGGAAAAGUUUUCCUGUAACCGAUGUCCAAACAACAGAGGAUUGAGCAUCA
B12: chr14:78183846:78183847:+_ENSG00000119705_ENST00000557342|hu_hu|hu_hu_hu_mus_False|1_88 (ssRNA)
RNA: GGGAGUUCUACAGUCCGACGAUCUCUCAGAAAUCUUUCUUCAUCAGCAUCAUCAGAUCCGUGCAAAGCCUUUGCUCUUUGAGCUUGAACGUGGAUCUAUGGGAGGGAAAGCACUGUCAGAAAAGGUAAUUUUUUUUUCCGAAGCAACAGAGGAUUGAGCAUCA
B13: chr7:31081878:31081879:+_ENSMUSG00000013921_ENSMUST00000014065|mus_mus|FALSE|FALSE (ssRNA)
RNA: GGGAGUUCUACAGUCCGACGAUCGAUGGUGGUCUUCGGGUCAAACAGAAUUUCCUGGCACGCAGGGUCAUUGGGAUCGAAGAAGGUAAAAGCGUAGUCUUUGGGGAGCGGAGCAGGUGCUGAGGGGUGCACAACUGGCUUCUGCAACAGAGGAUUGAGCAUCA
B14: chr2:198351390:198351391:-_ENSG00000144381_ENST00000345042|hu_hu|hu_hu_hu_mus_False|28_28 (ssRNA)
RNA: GGGAGUUCUACAGUCCGACGAUCUCAUUCCCACCCUCCACAGAAAGGCUGCUUCUGAACUCUCAUGUGGUGACACAGCGCUACAGUCCUGAUGCUCACAGAACAGUAGUAAAAAUGCAGUGAUUUAAGUUGAAAGCAGGACACCAACAGAGGAUUGAGCAUCA

What follows are binders tested against T1, UNK ZnF1-3 (human, UniProt Q9C0B0 31-174) (assay: nsRBNS (natural sequence RNA bind-n-seq); RBNS binding buffer (assumed for nsRBNS): 25 mM Tris pH 7.5, 150 mM KCl, 3 mM MgCl2, 0.01% Triton X-100, 500 ug/ml BSA, 20 U/ml SUPERase-In, 4 C; UNK is unkempt and MSI1 is Musashi-1; names of the RNAs are library labels; protein concentration not given here; high values mean tight binding).
T1 sequence: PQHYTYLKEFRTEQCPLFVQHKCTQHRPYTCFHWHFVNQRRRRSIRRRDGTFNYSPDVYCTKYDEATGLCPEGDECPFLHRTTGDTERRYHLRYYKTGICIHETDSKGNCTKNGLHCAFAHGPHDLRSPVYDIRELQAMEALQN

| Binder | binding signal |
| --- | --- |
| B1 | 0.489 enrichment R |
| B2 | 0.88 enrichment R |
| B3 | 0.377 enrichment R |
| B4 | 1.2 enrichment R |
| B5 | 0.882 enrichment R |
| B6 | 0.506 enrichment R |
| B7 | 2.49 enrichment R |
| B8 | 0.794 enrichment R |
| B9 | 0.65 enrichment R |
| B10 | 0.497 enrichment R |
| B11 | 0.992 enrichment R |
| B12 | 1.4 enrichment R |
| B13 | 1.65 enrichment R |
| B14 | 1.54 enrichment R |

Source: paper PMC12136788
